# Results published in the RNAGym collection of RNA variant scans (doi:10.1073/pnas.2313332121).
# This sample is rich in variants without activity.
# B1: TPR 5TU (parent)
# chain: GGAUCUUCUCGAUCUAACAAAAAAGACAAAUCUGCCACAAAGCUUGAGAGCAUCUUCGGAUGCAGAGGCGGCAGCCUUCGGUGGCGCGAUAGCGCCAACGUUCUCAACUAUGACACGCAAAACGCGUGCUCCGUUGAAUGGAGUUUAUCAUG
# Variants of: B1
# Experiment: polymerase ribozyme fitness, log enrichment relative to wild type (log ratio); higher = more active; in vitro selection for triplet polymerase activity
# How it was run: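 A heterodimeric triplet polymerase ribozyme had each of its subunits mutagenized by PCR into a library, which was transcribed. One round of in vitro selection, done in triplicate, annealed each library with a biotinylated primer, its partner subunit and triplets, then incubated it frozen at −7 °C before gel excision of extended constructs, streptavidin-bead capture and RT-PCR. Fitness is the logarithm of genotype enrichment relative to wild-type enrichment, based on Illumina sequencing of inputs and outputs and inverse-variance-weighted replicate averages. A base-2 logarithm is used, and genotypes were kept only with ≥10 input reads and ≥1 read per output.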
row,Variant,polymerase ribozyme fitness (log ratio)
1,A23U C35U U55A A66U A97U A113U A122G U139A,≤ -4.2
2,A22C C85A,-1.08
3,A22C C85U,-0.656
4,A22C C36A G48U C75U C87G,≤ -4.2
5,A23U C35A U55G C75G C87U A97C A106U U145G,≤ -4.2
6,A22G C35U A39C U127G C129A,≤ -4.2
7,A23U A28G U31C G34A A49C C87U A137U A147C,≤ -4.2
8,A22G G50U C51U G92A U151C,≤ -4.2
9,A23G G92U,-3.31
10,A23U C75A C108G U145C,≤ -4.2
11,A22U A73C A91G A138U,≤ -4.2
12,A23U G65A G88C A106U U134G,≤ -4.2
13,A22U A29U U55C C63G U134G,≤ -4.2
14,A23C G68U C85A,≤ -4.2
15,A22U A23U G34C C95U C105U A107U C108G A115U A120U A142U A147G,≤ -4.2
16,A23U U45C A66G C85U,≤ -4.2
17,A23C A91G C108U,≤ -4.2
18,A22C A91U C125A,≤ -4.2
19,A23U C75A C85G C131G,≤ -4.2
20,A24C C27U C54G G94U A106C,≤ -4.2
21,A23G A41U C76G G80A A89U G124U,≤ -4.2
22,A23C G34U C95U A113G,≤ -4.2
23,A22U G50A G62U U77A C93A G133A U151C,≤ -4.2
24,A23C A24G G88A C118U,≤ -4.2

row,Variant,polymerase ribozyme fitness (log ratio)
1,A23U U56A C76A C103G C149G,≤ -4.2
2,A23U C79U G81C G83A A113U,≤ -4.2
3,A22C G84U A98U G140U,≤ -4.2
4,A23G A52C U53A U56G C85U,≤ -4.2
5,A22U G46C C114U,-3.67
6,A23U C85U U151G,≤ -4.2
7,A23G C51U G65C G88C U111A C131G C149G,≤ -4.2
8,A23C G34C C72U,≤ -4.2
9,A23C A30G C95U A98G,≤ -4.2
10,A22C C76A A89G C95G,-4.19
11,A23C A24G A28C C63U G67A A121U U144A,≤ -4.2
12,A22U A26G C85U C93A,≤ -4.2
13,A22U G48C G68C C85U G152U,≤ -4.2
14,A24C A49C C51U C85U U101A G117C G133U,≤ -4.2
15,A23G G48C C108G A110G A122C,≤ -4.2
16,A23G G58U C108G U135G,≤ -4.2
17,A23U U55A G84U G94C C95A,≤ -4.2
18,A22U A120G U144A,0.42
19,A22G A52U U56A A91U C93A A142U,≤ -4.2
20,A23C A26G C116G,≤ -4.2
21,A22C G50A U55G U77C G94A,-4.04
22,A23C A47G C93U C125A G126A G128A,≤ -4.2
23,A22U G88U C116A A119U,-4.1
24,A23U C51U C93U G100U C123G,≤ -4.2

row,Variant,polymerase ribozyme fitness (log ratio)
1,A24C A28C A30G G42A G59A A107U G112C C116U A147G,≤ -4.2
2,A22C G48C C51U G70C C72U C105U G143U,≤ -4.2
3,A23G C76G A89U C108G U111G,≤ -4.2
4,A22G G92U C103U C108G G133C,≤ -4.2
5,A23G U31G A47C A64C G65A U82G U102C A121G,≤ -4.2
6,A23U G42C C54U C76A C93A U127C G133C,≤ -4.2
7,A23C A41G C51A U56A U127C,≤ -4.2
8,A22G G59A,-0.246
9,A22C C27A U56A C85U C93A C99G A138U,≤ -4.2
10,A23C A26U U56A G83A C96G U101G G124U U134G,≤ -4.2
11,A23U A52U C93A A122U,≤ -4.2
12,A22U A23C C27G C63U C87U A89G C129A,≤ -4.2
13,A23U G50A C132U G140C,≤ -4.2
14,A23U C85A G128C A150C,≤ -4.2
15,A23U U33G C54U C57A G74A,≤ -4.2
16,A24C C27U U61A A91C A106G G141A,≤ -4.2
17,A22G U44A G50U G83U A89G G94C G136C U139G,≤ -4.2
18,A22G G48A U53G C54G A60U C85G C129G,≤ -4.2
19,A23G A40G G42C,≤ -4.2
20,A24C C54G C76U U78A C105A A147C,≤ -4.2
21,A23U C79G C123A G136U G140U,≤ -4.2
22,A22U A26C A41U C54U U78G A91U G100A C105U A150G,≤ -4.2
23,A23C C54U U56A A73U C75A G86U,≤ -4.2
24,A22U G81A C93G,≤ -4.2

row,Variant,polymerase ribozyme fitness (log ratio)
1,A22C C85A A115U U127A C131G U146G,≤ -4.2
2,A22U A28U U45G G50U C103G,≤ -4.2
3,A24C A37U A40C G46C C75A C116U A138C,≤ -4.2
4,A24C C32G A37C G58A G59C A60C C85U C87G C116U A138G,≤ -4.2
5,A22G G46U C93U A97U G136U,≤ -4.2
6,A22U C36A C57A C96U G124A C129U,≤ -4.2
7,A23U G25U C27G U56A C75U C96A,≤ -4.2
8,A22U G58A A60C U111A,≤ -4.2
9,A22C C75U U77C G83A A89C,≤ -4.2
10,A23U C85G G141A,≤ -4.2
11,A23G U33G G141U U148C,≤ -4.2
12,A22C C27A G42A U44A C85G,≤ -4.2
13,A22U C35U A47U G59U G67A C132A G136U,≤ -4.2
14,A22U A23G G50A G86A C116G U130G C131G,≤ -4.2
15,A22U U104A C108G,≤ -4.2
16,A23U G42U G68A C79U C96G G140C,≤ -4.2
17,A23C A119U G124C,≤ -4.2
18,A22U G25U A39U G92A C149U,≤ -4.2
19,A22U G58A G74A U90A,≤ -4.2
20,A23U A28C A60C U61G C72G G94U U127C,≤ -4.2
21,A23C A30C A47U A60C C85U C96U C99A A107C G126A,≤ -4.2
22,A22G C27U U44A A52C A73G C95U,≤ -4.2
23,A22U C32G G62A G86U C87U C108U G126U,≤ -4.2
24,A23G C27G A40U C75U G81C G94C U101A U109A,≤ -4.2

row,Variant,polymerase ribozyme fitness (log ratio)
1,A24C,-3.22
2,A23U,-3.23
3,A23G,-1.78
4,A23C,-3.48
5,A23U G140U G141U,≤ -4.2
6,A24C A49C G84A U109G G133A U144A,≤ -4.2
7,A23C A41C C75A G84A A115U G152A,≤ -4.2
8,A22U A26C G62C C87A C116G A147U,≤ -4.2
9,A24C A73U C79U G88U G126A,≤ -4.2
10,A23C G25A U55A U61G G68A G92U A97U G124A G128C,≤ -4.2
11,A22G A23C A28C A41C U44G U55A G68C A91G U146A,≤ -4.2
12,A22G C27G A29G A49C U53A C54G C79U G83U C93G U127C,≤ -4.2
13,A22G A24G A28G C51U C76A,≤ -4.2
14,A22C G84U A98G G140U,≤ -4.2
15,A23U G48A G92U U101G A119G,≤ -4.2
16,A23G C38U U56A C63U U77G C103A U135C,≤ -4.2
17,A24C A89C G92C G140A,≤ -4.2
18,A22G A52G G128C,-3.48
19,A23C A29U A41U G50A C95A G126A U145A U151G,≤ -4.2
20,A22C U44G G94A,≤ -4.2
21,A23C A91U,≤ -4.2
22,A23U U55A U77C C85A C96A,≤ -4.2
23,A23C A29G A52C C54G U82C G136C,≤ -4.2
24,A22U U55A G86U C93U U104G A142G,≤ -4.2

row,Variant,polymerase ribozyme fitness (log ratio)
1,A23U G68U C85U G117U,≤ -4.2
2,A22G A24U C85U G86A G88A G100U U109G A119G U135A,≤ -4.2
3,A24C A29C G100U U109G A120G,≤ -4.2
4,A23G A40U A66C U109G U111G C149U,≤ -4.2
5,A22G C36A G48A C95G G140C,≤ -4.2
6,A22U A41G G81A C87U C99U A119G G152A,-2.3
7,A23U C72U C87G C93A,≤ -4.2
8,A23C A29G U82A A91C C93U,≤ -4.2
9,A23U G94A,-3.99
10,A23C C27G U56A G58U,≤ -4.2
11,A23U A29U A121U G141U,≤ -4.2
12,A23U C96G C123G G141C,≤ -4.2
13,A23G G34U C36U A89U C99A,≤ -4.2
14,A24C C35U G62C C95U C96A,≤ -4.2
15,A23G A30G C85G C131A G133A A138U,≤ -4.2
16,A22U A30G G46C G50C A52C U55G G83A G94A,≤ -4.2
17,A23G A26U C54A U90G A91G,≤ -4.2
18,A22U A40G G84A A119G,-2.75
19,A22G A29U G46U G92U U135C,≤ -4.2
20,A24C A41C G84U G88A G94C A110G,≤ -4.2
21,A22U G59A,-0.47
22,A22U A52G A91C U135G,≤ -4.2
23,A23U A26C G50A,≤ -4.2
24,A22C G34U G50A C54U C93U C105G G112C,≤ -4.2

row,Variant,polymerase ribozyme fitness (log ratio)
1,A22U C32U A47U U55A C96G A97U G133U U134C U135G,≤ -4.2
2,A23G G58U G83U C118U A137U,≤ -4.2
3,A23U A49U A73G C96A U127G,≤ -4.2
4,A23C C43U C93U C149G,≤ -4.2
5,A22U A39G A49C C79A A137C,≤ -4.2
6,A23C C57U G92U C93U,≤ -4.2
7,A22U C38U G58C A66G C75U A97G G136C,≤ -4.2
8,A22U A28U U33G G58U G81A A107G G126U A137C A142G,≤ -4.2
9,A22G A24C U90C C96A U102G A119C G141A U146C C149U,≤ -4.2
10,A23G G50U U146G,-3.73
11,A24C A49C G81A G124U,≤ -4.2
12,A23G U44A A47U A52C C87G A89U A97U G136A,≤ -4.2
13,A22U G86U A120U,-1.56
14,A22C G42A C85U U127G U130C,≤ -4.2
15,A22U G59U G86A A121G A138U,≤ -4.2
16,A22U A28G G80C C99U C108A G140C,≤ -4.2
17,A23C A24C C76A C87G A142G,≤ -4.2
18,A23U C27G C116G,≤ -4.2
19,A23U A66G G68U G140U,≤ -4.2
20,A22U A49C C69G G70C U101A,≤ -4.2
21,A22G A91U A97G G126A,≤ -4.2
22,A22U U134A,-2.01
23,A23U U77A G88U G141A C149A,≤ -4.2
